Assay results as given in article PMC11513070.
Numbering of substitutions follows the chain as printed. Numbers in names are those of the source. Results are given in words; binding and its absence hold for the method and conditions named. In cells and extracts the contact can be indirect. Some entries that bind do so weakly or less than the wild type. For part of these data: Tags and fused reporters may be left off the sequences shown.

T1: calnexin-3xFLAG (murine) (mouse) (UniProt P35564)
T1 sequence: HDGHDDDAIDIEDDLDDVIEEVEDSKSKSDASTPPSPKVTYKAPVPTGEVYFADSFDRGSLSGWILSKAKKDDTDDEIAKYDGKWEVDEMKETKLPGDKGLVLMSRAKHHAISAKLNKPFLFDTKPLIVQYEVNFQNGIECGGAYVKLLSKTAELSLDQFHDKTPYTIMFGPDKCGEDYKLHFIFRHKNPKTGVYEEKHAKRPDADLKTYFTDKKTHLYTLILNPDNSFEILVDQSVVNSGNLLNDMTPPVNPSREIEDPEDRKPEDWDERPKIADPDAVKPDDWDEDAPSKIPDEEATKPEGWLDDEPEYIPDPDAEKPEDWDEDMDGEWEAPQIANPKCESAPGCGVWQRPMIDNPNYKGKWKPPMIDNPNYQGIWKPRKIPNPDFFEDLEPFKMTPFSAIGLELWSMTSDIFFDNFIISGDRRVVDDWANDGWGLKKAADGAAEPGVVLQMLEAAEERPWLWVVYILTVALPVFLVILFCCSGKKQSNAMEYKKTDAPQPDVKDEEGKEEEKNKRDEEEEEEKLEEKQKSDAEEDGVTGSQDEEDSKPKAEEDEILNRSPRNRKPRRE

T2: calmegin-3xFLAG (murine) (mouse) (UniProt P52194)
T2 sequence: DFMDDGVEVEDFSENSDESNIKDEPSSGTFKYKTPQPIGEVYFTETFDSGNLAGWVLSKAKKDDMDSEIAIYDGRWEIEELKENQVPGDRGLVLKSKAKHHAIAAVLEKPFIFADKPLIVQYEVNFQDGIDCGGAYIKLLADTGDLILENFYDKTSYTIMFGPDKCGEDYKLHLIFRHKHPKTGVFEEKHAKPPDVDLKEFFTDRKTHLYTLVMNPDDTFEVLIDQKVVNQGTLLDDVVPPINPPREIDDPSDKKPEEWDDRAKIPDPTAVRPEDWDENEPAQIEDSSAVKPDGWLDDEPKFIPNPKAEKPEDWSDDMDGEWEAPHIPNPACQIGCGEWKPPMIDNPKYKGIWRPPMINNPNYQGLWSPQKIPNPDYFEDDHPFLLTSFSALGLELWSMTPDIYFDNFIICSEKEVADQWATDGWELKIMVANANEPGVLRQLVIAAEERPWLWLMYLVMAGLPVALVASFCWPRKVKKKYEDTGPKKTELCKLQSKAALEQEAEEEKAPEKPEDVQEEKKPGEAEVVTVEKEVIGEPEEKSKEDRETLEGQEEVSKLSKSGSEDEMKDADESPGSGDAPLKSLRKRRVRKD

T3: Frey1-3xFLAG (UniProt Q8CF31)
T3 sequence: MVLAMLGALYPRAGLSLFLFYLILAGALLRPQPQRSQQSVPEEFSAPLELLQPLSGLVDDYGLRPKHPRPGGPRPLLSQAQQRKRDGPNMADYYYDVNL

T4: SPPL2c (Signal peptide peptidase-like 2c), endogenous in murine testis (mouse (endogenous in testis)) (UniProt A2A6C4)
T4 sequence (chain, N-glycosylated at N106): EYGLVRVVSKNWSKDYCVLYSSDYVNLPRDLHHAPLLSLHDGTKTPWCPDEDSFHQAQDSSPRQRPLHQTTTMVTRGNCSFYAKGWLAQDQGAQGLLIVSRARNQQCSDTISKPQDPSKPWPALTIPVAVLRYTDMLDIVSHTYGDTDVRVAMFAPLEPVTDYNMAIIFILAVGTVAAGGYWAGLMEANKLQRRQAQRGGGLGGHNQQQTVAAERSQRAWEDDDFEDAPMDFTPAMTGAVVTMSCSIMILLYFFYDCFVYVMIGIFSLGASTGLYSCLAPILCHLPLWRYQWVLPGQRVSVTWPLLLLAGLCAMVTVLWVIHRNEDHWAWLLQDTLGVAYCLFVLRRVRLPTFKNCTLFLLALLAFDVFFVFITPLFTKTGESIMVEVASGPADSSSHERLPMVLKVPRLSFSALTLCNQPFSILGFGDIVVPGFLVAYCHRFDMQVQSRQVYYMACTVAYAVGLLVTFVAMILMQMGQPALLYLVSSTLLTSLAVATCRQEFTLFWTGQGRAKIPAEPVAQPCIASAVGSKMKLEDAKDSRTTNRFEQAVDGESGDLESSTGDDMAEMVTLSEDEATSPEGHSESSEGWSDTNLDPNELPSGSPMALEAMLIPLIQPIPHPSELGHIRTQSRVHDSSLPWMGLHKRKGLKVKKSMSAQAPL

B1: SPPL2c-myc (murine SPPL2c isoform A, wild type) (enzyme, UniProt A2A6C4 29-690)
chain: T4 sequence (chain, N-glycosylated at N106)
modifications: N-glycosylated at N106
B2: Frey1, endogenous in murine testis (protein, UniProt Q8CF31 1-99)
chain: T3 sequence
B3: calnexin, endogenous in murine testis (protein, UniProt P35564 21-591)
chain: T1 sequence
B4: SPPL2c N106A-myc (murine isoform A, glycosylation-deficient) (enzyme, UniProt A2A6C4 29-690)
chain: T4 sequence (chain, N-glycosylated at N106) with N78A

Assays:
[1] = target: T1, calnexin-3xFLAG (murine) (mouse); test: co-IP; 3xFLAG-tagged calnexin or calmegin co-expressed with SPPL2c-myc in HEK293T cells, lysis in 0.5% DDM, chaperone precipitated with anti-FLAG beads; western blot
[2] = target: T2, calmegin-3xFLAG (murine) (mouse); test: as above
Frey1-3xFLAG = target: T3, Frey1-3xFLAG; test: co-IP; Frey1-3xFLAG co-expressed with SPPL2c-myc variants in HEK293T cells (wild type or calnexin-deficient clone #9) and precipitated from DDM lysates with anti-FLAG beads; western blot
[3] = target: T4, SPPL2c (Signal peptide peptidase-like 2c), endogenous in murine testis (mouse (endogenous in testis)); test: co-IP; endogenous SPPL2c precipitated with anti-SPPL2c (C-terminus) sepharose beads from mouse testis lysates (0.5% DDM; for Frey1 also CHAPSO, DM and digitonin tried; wild type, Sppl2c-/-, Frey1-/- and double-deficient mice), overnight at 4 °C; western blot

Row | Binder | binding [1] | binding [2] | binding (Frey1-3xFLAG) | binding [3]
1 | B1 | binds | binds | binds | –
2 | B2 | – | – | – | binds
3 | B3 | – | – | – | binds
4 | B4 | – | – | binds | –
